Measured values as given in the RNAGym collection of RNA variant scans (doi:10.7554/elife.90254).
Read counts are not given, so values of variants with three or more changes are uncertain.

B1: LINE1-mini (parent)
chain: GGCAGAGCUCAACACAGCGUGGCAAAGUGGCUGUGGCUAGACUGCC

Variants of: B1
Assay: self-cleavage, relative activity (ratio to wild type); higher = more cleavage; in vitro, sequencing; the parent is a self-cleaving ribozyme

Variant	self-cleavage
A4U A6U G21U U28G G29U	0.06
A4U C8A A25C G30A C37U	0.1
A4G U9A A16G G29U	0.13
A4U A12C A24U U32G	0.03
A4U A16C A26G A41C	0
A4U C8A A12G C23U	0.16
A4G G33U C45U	0.06
A4G U9A A11C G36U	0.02
A4G G40A C46G	0.03
A4U C8G C15A U28G A39G	0.06
A4U A11U C42A U43C C46A	0.01
A4U A11G A26U	0.07
A4U C8A A12U A24G A26G C31U	0.03
A4U A6C G19A U28A G40A	0.3
A4U A11G C42A	0
A4U A11G C42U	0.02
A4U C8A G17A	0.23
A4G U28A G44U	0.06
A4U C8G C10U C45G	0.05
A4U C8A A26C C42G U43A	0.06
A4U A14G A16G	0.04

Variant	self-cleavage
A4U A6G A12C U32A U43A	0.03
A4G U34G G35C	0.16
A4U A6U A11U G35A	0.03
A4U A6U A14U	0.09
A4G U34C C45U	0.04
A4U A6C U9G C10U C13U U43C	0.03
A4G G36U C46G	0.02
A4U A16U U32A	0.07
A4U A12C G19C	0.03
A4U C8G A12C A14U	0.07
A4U C8A C23A A24G C37A	0.17
A4U C8A U28C G29A G35A	0.01
A4U A11C A16G G19U G27A G29U	0
A4U A24G G27C G35U A39U	0.08
A4U A11C A14U U20A U34A	0.02
A4G U34C C37U	0.04
A4G G35A G44U	0.06
A4U C8U A16U C18U C46U	0.01
A4G U9C U43C	0
A4G U9A A25U G27C U32A U34C	0.1
A4G G35U G44C	0.11

Variant	self-cleavage
A4U A6G C46A	0.5
A4U A12U C13A G17A A39G	0.02
A4U A12G C23U G27C G36A	0.01
A4G U20A G21A	0.34
A4U A25C G33A U34A U38C	0.02
A4U A6C C31A G36U	0.02
A4G G33C A41G	0.1
A4U A12G A26C	0
A4U C10A A14C C23A G27U U28G C42G	0.01
A4U A12C C13A A14C G17A G30U U32G	0.01
A4G U9A A24C	0.37
A4U A12U C45G	0.03
A4U A24G A39U	0.07
A4G U34C G40A	0.08
A4G U20C C23G C45U	0.31
A4U C8G G29A	0.05
A4U A14G G19C G35A U43C	0.02
A4G U20A C45G	0.4
A4U A6U G21U G29A U32G	0.03
A4G U9G C10U	0.05
A4U C8G A11G A16C G44A	0

Variant	self-cleavage
A4U A12G G30A C42A G44U C45G	0.03
A4G U20A U32C	0.09
A4U C8U G40U A41C	0.28
A4U A11G A26G G29C U43A	0.01
A4U A6C U38C	0.02
A4U A11G A12G C13U	0.03
A4U A11G G17U	0.01
A4G U9G U20A G36C C45U	0.04
A4U A11C C13U A26U U34A C46G	0.02
A4U C8A U9A G17A U20A G21A G40A C45U	0.09
A4U C8G C18G	0.05
A4G U32C C37G	0.05
A4U A14U A26G G44U	0.1
A4G U20C G35A C37A C45A	0.01
A4U A6G G40U	0.11
A4U A24C G33U	0.19
A4U A16U U32G U38C	0.05
A4U A16C A26C	0.05
A4G U9G C18G U32C A41G	0.13
A4G U9A C15U G21U	0.2
A4U A25C U28A U34C	0.05
